Assay results as given in the supplement of paper PMC3334620.
The full ranking holds about 33,000 sequences; the median of “E-score (-0.5 to 0.5)” is about -0.036, and the highest 2% start at about 0.37. This is one part of the list.

These sequences were tested against T1, Yer064c (UniProt P40041) (assay: PBM E-score (8-mer binding enrichment) (E-score (-0.5 to 0.5)); higher = stronger / more preferred TF binding; most listed sequences are background and not binding sites). Conditions: protein concentration: 200 nM; construct: GST-full length.
T1 sequence: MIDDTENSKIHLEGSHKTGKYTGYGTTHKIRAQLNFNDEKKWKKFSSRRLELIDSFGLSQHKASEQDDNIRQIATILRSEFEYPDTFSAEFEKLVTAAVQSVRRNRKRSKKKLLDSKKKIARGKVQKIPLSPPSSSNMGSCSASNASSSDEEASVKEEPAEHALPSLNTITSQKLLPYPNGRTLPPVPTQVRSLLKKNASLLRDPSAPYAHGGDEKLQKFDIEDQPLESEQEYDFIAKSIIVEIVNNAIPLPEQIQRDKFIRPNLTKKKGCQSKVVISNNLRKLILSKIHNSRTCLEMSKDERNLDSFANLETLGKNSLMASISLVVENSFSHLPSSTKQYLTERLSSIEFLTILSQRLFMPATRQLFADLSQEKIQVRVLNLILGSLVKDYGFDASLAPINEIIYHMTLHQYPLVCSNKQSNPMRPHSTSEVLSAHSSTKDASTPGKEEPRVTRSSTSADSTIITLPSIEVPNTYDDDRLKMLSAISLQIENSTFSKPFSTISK
In short: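 Each ungapped eight-base word and its reverse complement, pooled, received an E-score from the Universal PBM Analysis Suite. Underlying scans, normalised with masliner, recorded fluorescent anti-GST bound to GST-tagged yeast transcription factors. These were applied at about 100-200 nM to universal all-10-mer Agilent arrays double-stranded by primer extension.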

Sequence	PBM E-score
TCTCTACA	-0.0343
ATGAAAGC	-0.139
TTAGGGAA	-0.0289
CAGAGAAC	-0.0639
AGGCACGA	0.02
ATAACGTC	0.0229
GCGCTTCC	-0.28
GCTTGAAA	-0.125
TCGCTTCA	-0.0884
GGCAGACA	-0.259
GCCCCAAA	-0.26
CTTTGTCA	0.022
ACCGCAAG	-0.129
AGGAATGG	-0.0597
GATCATAC	-0.0115
AGACTTCC	0.157
CGACCTAG	0.0107
AATACACC	-0.0713
CGACTGGC	-0.00941
ATACAAGC	-0.123
CAGGGTGG	-0.0658
CTGTTGAC	0.127
ACATGTGA	0.0466
ACTTTATA	0.00037
ACGTCCTC	-0.264

Sequence	PBM E-score
AGATACGC	-0.268
CAAAATAA	0.0314
ATTCTACC	0.08
GATGACCA	0.262
ATCTGAGA	0.126
CACATATC	0.0805
ATTGACTC	0.445
ATGTTCGA	-0.0418
GTCAGGGA	0.139
AGCATAAC	-0.143
GCTCGGTA	-0.0582
TACGGATA	0.122
GAATTGGC	-0.22
ATAAACAT	0.0529
GTATGCAA	-0.0656
AACCGGTA	-0.295
CAATCCAC	0.0303
TAAGCTGA	0.153
ACCGTGTA	-0.0452
CTCACCAC	-0.0184
CTGAAGAA	-0.0221
TAACCTAA	-0.0307
TCATATAA	0.143
AGCTGCCT	-0.192
ATCGAATA	-0.162

Sequence	PBM E-score
GTACATCA	0.0356
TAAATTCA	0.0168
CCACCAGA	-0.0605
GGGAGAGA	-0.255
CTCTAGAA	0.0549
CCTTGGGC	-0.276
AGCTTTAG	0.0221
ACGGTCCG	-0.209
GGGCACAA	-0.229
GTCGAAGA	0.0215
CGACGTAC	-0.072
CGTAGACG	0.0186
GCGTGTAA	0.044
CGCCCTAC	-0.229
AACAACTC	-0.182
ACTAATTG	0.161
CCCATTAG	-0.0867
ATATGAGA	0.0697
GAACGTGC	-0.327
ACGTCGAG	-0.101
GAGAGTGC	-0.283
CGTGCAAA	-0.103
GGCAAACA	-0.233
CCAGATCC	-0.372
AACCGACT	0.206

Sequence	PBM E-score
CGACTGCA	0.253
AACAAACC	0.0357
AGTGACTA	0.469
ACAGATGC	-0.101
ACCTATAG	-0.163
CTCAAGAC	0.118
GCAAAAAC	-0.0918
AGGCCATG	-0.0831
CCTCATAC	-0.153
TCAGTAAA	0.186
CTCACCCC	-0.00751
CGTCCCAA	-0.00756
CGCCGCGA	0.0909
GTTAACTA	0.153
CATCTCCC	-0.0994
ATGAAAAT	0.119
ATGGCCAC	-0.244
TAAGAGGA	0.0965
AAAATTAC	0.105
CAGTTCAG	0.0732
AAGGCGAG	-0.186
GTTGAAAA	0.0339
CCGTCTAA	-0.0579
CTGTAAGA	-0.097
AACGGACT	0.113

Sequence	PBM E-score
ACGGCACA	-0.0583
GTTTATTA	0.148
ACATCCAA	-0.107
GTCCTCCA	-0.006
TAATAGTA	0.104
ATCGGAAG	-0.0489
CCTAGGAG	0.00138
GGGCGGAA	-0.148
CCGATCAA	-0.0705
GGATGAAC	0.00015
GTCGGCCA	-0.0323
CCCTAAAA	-0.234
ACCAAGCG	-0.321
TACATGTA	-0.126
CCCCCCAC	-0.296
CCAGACTA	0.208
CCAATTAG	0.0675
ATGGGACC	-0.118
CTCGGGAA	0.0998
CTAGCGCA	-0.0675
AGTAACAC	0.19
CGCACAAG	0.0388
CAGAGCTA	-0.157
AAAAGATT	0.122
CACATTTC	-0.113

Sequence	PBM E-score
CAATACAA	-0.0296
GGTGCCTA	-0.293
GAGGAGAA	-0.214
CATAACTA	0.0523
CAGGGAGC	-0.0512
CTCAGTGC	0.0043
CTTAGCCA	0.289
CGGGTACG	-0.182
ACGAAGAG	0.118
AGAGCTAA	-0.0864
AAGGAGAA	-0.09
ATACTCTG	0.0259
ATAGTTGA	0.126
CCGGATGC	-0.224
ACCCAACA	-0.144
CTTGATTC	0.324
ATCTAATC	0.195
CTAGTAAG	0.0365
ACAGAAGG	-0.0367
CTTGAGTA	0.233
ATTTATAA	0.255
ACGCTACT	-0.181
AGATCATC	0.0903
CAGGCAGC	-0.235
ACAGCCTG	-0.0639

Sequence	PBM E-score
CGGCACAC	-0.0912
CATGATGG	0.0468
AGGTAGCC	-0.0747
GAAGCAGC	-0.24
CATATTGC	0.00639
CATCGGCC	-0.0369
ATTGTTGA	0.0448
AAGTAGTG	-0.157
ATAACACA	0.0301
ATGCAAGC	-0.174
AGTTAGAC	0.177
ATAGATCA	0.0787
GGTAGCAA	-0.309
TATCTAGA	0.228
AGTCAGAA	0.434
CTGGCAAC	-0.279
AAGTAATG	-0.00135
CGGACGGC	-0.233
ATGTGGCA	-0.0425
AGTTCGCC	-0.0208
AATGCTAG	-0.164
AAGCGATA	-0.0238
CGGAGATC	-0.102
CAACTCTA	-0.131
ACCTTATG	0.0672

Sequence	PBM E-score
TATGATGA	0.338
GTCAATAA	0.16
CGCTACAA	-0.05
AAGTTTTG	0.0171
CGAAACGA	-0.131
GCGGGCGA	-0.139
ATAGATGC	-0.182
AGATCTAC	-0.135
CAGTCGGA	0.118
CTACTAAA	0.00127
CTTGGTTA	0.122
CTGAGTGC	-0.0835
GACCCGTA	-0.118
CCGGGCCA	-0.254
GTAAAGCA	0.025
ATAAATAC	-0.0305
ACGCGTTC	-0.0581
AAATAATC	0.252
CGACTCCG	0.332
TGGGCAAA	-0.208
CTAAAATA	0.0736
AAAGCGCA	-0.244
GAGCCATC	0.342
CCCTCCCG	-0.282
CCACGAAA	-0.12

Sequence	PBM E-score
TTACTCAA	0.272
AACTCCCG	-0.237
ATGAAAGA	0.125
CATGCCAA	-0.0235
ACTCGGCC	0.0413
CTTCCCCC	-0.281
ATGCATAC	-0.244
AGCCATAG	0.199
AGTGGTGA	-0.0291
ACAAAACA	0.0934
CCGGACGC	-0.192
GTTATAAA	0.13
CTCACAGA	0.166
ATGTAGTG	0.0118
AAGACTTG	0.165
GTTAGTAA	0.23
AGTTGCAG	-0.112
CTGCGCCC	-0.208
ACTTGATA	0.104
CCTTTACC	-0.149
CGATTGCG	-0.0158
AAGCTCCC	-0.327
GGTTATGA	0.164
GGTGATCA	0.249
CAGGCTCA	0.00191

Sequence	PBM E-score
AACCAGTT	0.0937
AGCGCCGG	-0.0466
GGCTAAGA	0.0902
TACTGAAA	0.069
ACGGAGTA	-0.0195
AGACATTG	0.0501
GCCCCGAC	-0.0848
CGTACACC	-0.204
AAAGGGCT	-0.071
ACGCGCGT	-0.0373
AGCCTCGG	-0.131
ACGTACAC	0.016
AGATGTCA	-0.177
TATTATAA	0.143
CCAAAACG	0.102
AAGAGCCC	-0.196
CCACAGGA	-0.0975
TACACCAA	-0.0139
AGGCCACT	-0.286
TCGCAGAA	-0.098
AATAGTCT	0.297
ACAGTTTC	0.00616
GCAGTTGA	0.138
CCCCAGCA	-0.275
AACTGCCC	-0.147

Sequence	PBM E-score
TACCAAGA	0.0476
ATGTCGGC	-0.0683
CACCCGAC	0.0884
CTGGCGTC	-0.0672
ATTCCCTA	-0.148
CCTTTTCA	-0.104
AAGCGCCA	-0.24
AGTCCAAA	0.136
ACTTCAAT	0.106
ATTGTTGC	-0.0256
AGCTACTC	-0.106
CCACGACC	0.0717
GCTACATA	0.00598
AGCCACTA	0.0591
CGGTCATC	-0.108
AGCTCGGC	-0.151
CACATTAC	-0.0779
AAAATGGG	-0.239
CACTATAG	-0.0715
GAGAAGGA	-0.183
ATATCCTA	-0.078
CTCTTCTA	-0.0284
ACGTGCGG	-0.247
CCCCACGG	-0.239
GGATTTAC	-0.101

Sequence	PBM E-score
GAAGGTAA	0.0282
CTCAGATC	0.0765
GAATCTCA	0.101
ACGCCGTC	-0.205
ACTAATGC	0.23
AAGAACTG	-0.104
AGCCTGAT	0.0848
ATCGTCCA	-0.116
ATACGCAC	-0.172
GGCGTCGA	-0.154
CCGACCTC	-0.0328
TGTGGGAA	-0.0587
AATCATTG	0.43
CTCAGACA	0.0631
CTTTAGAC	0.108
GTCTATTA	0.0741
CGTGGTTC	0.0434
CACCCGTG	0.064
AATTCCCC	-0.128
TCCTGTCA	0.128
CTAGGAAG	0.0853
ACTGCCCC	-0.136
AAGTTCGC	-0.098
AAGTACAT	0.089
GGAATGAA	0.00348

Sequence	PBM E-score
TCAGTAGA	0.187
AGTTCAAA	0.0705
AACCCTAT	0.00296
AGGCCTAG	-0.197
CAGAATAA	0.0889
CTGCAGAC	-0.0447
ATAAATAG	-0.00962
GCATTATA	0.00873
CCAGATAC	-0.15
GCTCAATA	0.0778
CAATCTAC	0.0573
GGTGCGAC	-0.0872
CTGAGTAC	0.291
GCTCGGCA	-0.165
CGTCTAAA	-0.155
CCGGCATA	-0.348
AACAATGC	-0.0469
TCTCCACA	0.0415
CACTGCGG	-0.0304
CAGAGGCC	-0.195
GTATGGAC	-0.0453
GGATATCA	-0.274
GCGCACGA	-0.146
AAGACCCT	0.0125
AAGGACCC	-0.172

Sequence	PBM E-score
ACGAGATA	-0.0927
GAAAATCC	-0.114
TCTACTCA	0.202
AACTCCCC	0.0421
CCTATTCA	-0.199
CCGTAATC	0.243
CACTTGGC	-0.159
CCGTCGTA	-0.0863
CCTTAGAG	-0.0606
CGAACTCG	-0.0883
AGGCGATG	-0.109
GAGAGGAC	0.00017
CCTCAGCA	-0.202
ACTCGCAG	0.16
TTATAAAA	0.138
GAACTGTC	-0.0169
ACACCTTG	-0.0294
AACTCCCA	-0.184
AGGCCTAA	-0.0777
